The whole screen tested about 310,000 compounds, of which about 14,000 (4.5%) showed an effect of 50% or more. Effects have a minus sign here. The list shows a part of the results.
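Further: peak tail current of the secondary pulse compared with the same well before compound.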

Chain of human ether-à-go-go-related gene (hERG) potassium channel (Q12809 whole entry, looked up): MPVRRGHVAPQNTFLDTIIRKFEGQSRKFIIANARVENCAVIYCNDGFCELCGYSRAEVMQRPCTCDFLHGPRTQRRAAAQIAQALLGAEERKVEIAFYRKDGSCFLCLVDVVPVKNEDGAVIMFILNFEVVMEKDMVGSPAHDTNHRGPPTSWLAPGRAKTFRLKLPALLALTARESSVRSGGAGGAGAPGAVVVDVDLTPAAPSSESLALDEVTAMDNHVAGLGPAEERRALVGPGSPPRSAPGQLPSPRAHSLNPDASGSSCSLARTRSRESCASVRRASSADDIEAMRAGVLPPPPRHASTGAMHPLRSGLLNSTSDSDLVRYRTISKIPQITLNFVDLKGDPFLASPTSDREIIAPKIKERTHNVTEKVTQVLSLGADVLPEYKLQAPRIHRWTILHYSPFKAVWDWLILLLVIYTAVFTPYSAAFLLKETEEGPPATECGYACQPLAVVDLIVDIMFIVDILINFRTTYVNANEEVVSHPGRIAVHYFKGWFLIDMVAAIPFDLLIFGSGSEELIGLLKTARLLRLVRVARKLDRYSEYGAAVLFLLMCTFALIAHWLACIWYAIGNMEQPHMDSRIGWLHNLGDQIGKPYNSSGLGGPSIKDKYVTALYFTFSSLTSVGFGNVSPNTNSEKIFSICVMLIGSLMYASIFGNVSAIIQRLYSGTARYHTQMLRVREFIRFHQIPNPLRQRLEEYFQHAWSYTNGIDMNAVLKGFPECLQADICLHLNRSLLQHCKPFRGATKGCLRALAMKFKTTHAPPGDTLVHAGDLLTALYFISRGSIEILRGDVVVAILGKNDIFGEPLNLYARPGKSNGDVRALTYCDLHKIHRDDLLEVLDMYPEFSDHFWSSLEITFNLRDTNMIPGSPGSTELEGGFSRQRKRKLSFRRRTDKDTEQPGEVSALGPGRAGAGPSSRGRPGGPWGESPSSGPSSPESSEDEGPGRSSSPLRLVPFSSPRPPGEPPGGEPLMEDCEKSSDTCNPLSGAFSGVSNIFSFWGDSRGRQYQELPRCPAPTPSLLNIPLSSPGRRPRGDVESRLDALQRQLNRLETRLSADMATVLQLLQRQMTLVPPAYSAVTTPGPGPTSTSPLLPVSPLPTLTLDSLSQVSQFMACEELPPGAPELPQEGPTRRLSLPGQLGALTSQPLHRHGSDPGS

This experiment has as its target human ether-à-go-go-related gene (hERG) potassium channel (human, UniProt Q12809). The experiment can be described thus: primary screen, population patch clamp on CHO cells stably expressing hERG.
`CCN(CC)C(=O)CSc1nnc(-c2ccc(F)cc2)n1N`: the “hERG current change (%, negative = inhibition) at 10uM” value is on record as -3.01%. For the compound `COc1ccc(C2C(C#N)=C(N)N(N(C)C)C3=C2C(=O)CC(C)(C)C3)cc1OC` (stereo not shown), the “hERG current change (%, negative = inhibition) at 10uM” value is -9.6%. As to `CCCCSc1nc(C)cc(SCC(=O)N/N=C/c2cccc(OC)c2O)n1`, the “hERG current change (%, negative = inhibition) at 10uM” value is given as 1.63%. The same measure for `CCn1c(=O)c2c(O)cc(=O)oc2c2ccccc21`: 1.86%. The same measure for `Cc1ccc(-c2nn(-c3ccccc3)cc2/C=N/NS(=O)(=O)c2ccccc2)cc1`: 9.71%. `COc1ccccc1C(=O)NC(=S)Nc1ccccc1N1CCCC1`: the “hERG current change (%, negative = inhibition) at 10uM” value was 5.05%. `CCC(=O)N1N=C2C3CCN(CC3)C2C1c1ccc(C)cc1` (stereo not shown): the “hERG current change (%, negative = inhibition) at 10uM” value was 10.1%.

As to `COc1cccc(C(=O)N/N=C/c2ccc(Oc3ccc([N+](=O)[O-])cn3)c(OC)c2)c1`, the “hERG current change (%, negative = inhibition) at 10uM” value is recorded as -27.2%. In the case of `O=C(CNCc1cccc(Cl)c1)N1CCc2ccccc2C1` it was -18.5%; in that of `COc1cc(NC(=O)Cc2cccs2)ccc1-n1cnnn1`, 9.4%; in that of `COc1ccc(OC)c(N(CC(=O)N2CCCC2)S(=O)(=O)c2ccc(C)cc2)c1`, 5.52%.

Regarding `Cc1nc(Nc2ccc3c(c2)OCCO3)c2c(C)c(C)sc2n1`, the “hERG current change (%, negative = inhibition) at 10uM” value is listed as -18.5%. With `Nc1ccc(C(=O)N/N=C/c2c[nH]c3ccccc23)cc1`, the “hERG current change (%, negative = inhibition) at 10uM” value was 13.9%. In the case of `Cc1cc(-c2ccco2)n(CC(=O)O)n1`, the “hERG current change (%, negative = inhibition) at 10uM” value is -8.68%. As for `Cc1ccc(C(=O)N2N=C(CC(C)C)CC2(O)C(F)(F)F)o1` (stereo not shown), the “hERG current change (%, negative = inhibition) at 10uM” value is 0.179%.

In the case of `Cc1nc([N+](=O)[O-])c(Br)n1CC(=O)c1ccc(Br)cc1`, the “hERG current change (%, negative = inhibition) at 10uM” value was -20.1%. Take `Cc1nn2cc(-c3ncc(C(F)(F)F)cc3Cl)cnc2c1Br`: the “hERG current change (%, negative = inhibition) at 10uM” value is recorded as 14.8%. As to `Fc1ccccc1/C=C1\CCCC2=C1Nc1nnnn1C2c1ccccc1F` (stereo not shown), the “hERG current change (%, negative = inhibition) at 10uM” value is -9.01%.

On to `CC(=O)Nc1ccc(S(=O)(=O)N2CCN(c3cccc(C)c3C)CC2)cc1`, for which the “hERG current change (%, negative = inhibition) at 10uM” value stood at 11.6%. Consider `CCOC(=O)C1(Cc2cccc(Cl)c2)CCCN(C(=O)c2cc(CC)on2)C1` (stereo not shown), for which the “hERG current change (%, negative = inhibition) at 10uM” value came to 7.97%. As to `COc1cccc(NC(=O)c2cc(-c3ccc(C)o3)nc3ccccc23)c1`, the “hERG current change (%, negative = inhibition) at 10uM” value turned out to be 11.6%.

For `COCCNC(=O)c1ccccc1NC(=O)CN(c1ccc2c(c1)OCO2)S(C)(=O)=O`, the “hERG current change (%, negative = inhibition) at 10uM” value is given as -7.28%. Turning to `CCOC(=O)c1ccccc1NC(=O)c1c(N)n(C)c(=O)[nH]c1=O`, the “hERG current change (%, negative = inhibition) at 10uM” value stood at 0.691%.

With `O=C(Nc1cc(Cl)cc(Cl)c1)c1cnn2cccnc12`, the “hERG current change (%, negative = inhibition) at 10uM” value worked out at 9.31%. Take `COc1ccc(CC(=O)NCc2nnc(SCC(=O)c3ccc(OC)cc3)n2C)cc1`: the “hERG current change (%, negative = inhibition) at 10uM” value is recorded as -3.61%.

`Cn1c(CCNC(=O)c2ccccc2)nc2cc(NC(=O)C3CCCCC3)ccc21`: the “hERG current change (%, negative = inhibition) at 10uM” value was found to be 11.1%.

With `COc1ccc(NC(=O)C(CCS(C)(=O)=O)N2C(=O)c3ccccc3C2=O)cc1` (stereo not shown), the “hERG current change (%, negative = inhibition) at 10uM” value is on record as -18.1%. With `CC(=O)Nc1cccc(-c2nnc(-c3ccccc3)o2)c1`, the “hERG current change (%, negative = inhibition) at 10uM” value is reported as 1.26%.

On to `COc1cccc(NC(=O)C2CCC(CNC(=O)[C@@H]3Cc4ccccc4CN3)CC2)c1` (stereo partly shown), for which the “hERG current change (%, negative = inhibition) at 10uM” value is -3.01%. In the case of `COc1cccc(CCN2CCC(CNS(=O)(=O)c3cc(-c4cc(C)no4)ccc3OC)CC2)c1`, the “hERG current change (%, negative = inhibition) at 10uM” value was -74.9%.

Turning to `Cc1nn(Cc2ccccc2Cl)c(C)c1C(=O)NCCN1C(=O)S/C(=C\c2ccccc2)C1=O`, the “hERG current change (%, negative = inhibition) at 10uM” value came out at 3.28%. On to `Cc1ccc(C(O)(CNCc2ccccc2)c2ccccc2)cc1` (stereo not shown), for which the “hERG current change (%, negative = inhibition) at 10uM” value is reported as -33.9%. The same measure for `CCN(CC)S(=O)(=O)c1ccc(N2CCOCC2)c(NC(=O)Cc2ccc(Cl)cc2)c1`: -26.9%; for `Cc1ccc(-n2ncc3c(NNC(=O)Cc4ccccc4)ncnc32)cc1`: 10.1%; for `CCC(C)NS(=O)(=O)c1ccc(F)c(C(=O)Nc2c(F)cc(F)cc2Br)c1` (stereo not shown): -60.8%. For the compound `CC(C)CN(C(=O)CSc1nc2ccccc2c(=O)n1C)C1CCS(=O)(=O)C1` (stereo not shown), the “hERG current change (%, negative = inhibition) at 10uM” value is reported as -46.6%. Regarding `CCOc1ccc(NC2=C(Cl)C(=O)N(C3CCCCC3)C2=O)cc1`, the “hERG current change (%, negative = inhibition) at 10uM” value was found to be 3.08%. `COc1ccc(OC)c(CN2CCN(C(=O)c3cc(S(=O)(=O)Nc4ccccc4OC)ccc3C)CC2)c1`: the “hERG current change (%, negative = inhibition) at 10uM” value is given as -36.8%. `CC(=O)Nc1ccc(SCc2csc(C)n2)cc1`: the “hERG current change (%, negative = inhibition) at 10uM” value is listed as 12.6%. The same measure for `CSc1ccccc1OCc1cc(C(=O)NCc2cccc(C)n2)no1`: 14.5%; for `COc1ccc(N(Cc2ccccc2)S(=O)(=O)c2cccc(C(=O)O)c2)cc1`: 13.4%.

As to `N=c1oc2ccc3ccccc3c2cc1C(N)=S`, the “hERG current change (%, negative = inhibition) at 10uM” value was 10.3%. With `CCOc1ccccc1NC(=O)c1ccc(S(=O)(=O)N(C)C)cc1`, the “hERG current change (%, negative = inhibition) at 10uM” value is listed as -19.7%.

These data come from article PMC4336329 (PLoS ONE, 2015).
